Test results from PubChem BioAssay AID1671188 (National Center for Advancing Translational Sciences (NCATS), 2021).
Where “and” joins values, the source holds several entries; their conditions need not be identical. Equal entries are not always repeated. Out of some 100,000 compounds screened, about 250 (0.25%) were called active. The inconclusive results got no clear call from the source; some entries with a clear call stand among them for comparison. The call rests on the fitted dose curve; in most records, active means well fitted inhibition curve with a large enough effect; inconclusive means small, poorly fitted or top-dose-only effect; inactive means flat fitted curve, though single readings scatter. Potencies of inconclusive entries are doubtful fits and often do not repeat.

biological target: Alanine aminotransferase 2 (Homo sapiens) (UniProt Q8TD30); experiment: Primary qHTS assay for inhibitors of Glutamate pyruvate transaminase 2 (GPT2); conditions: Recombinant GPT2, coupled pyruvate oxidase/HRP Amplex Red fluorescence; activity change, negative = inhibition: at 57.7 µM (top of the series) unless noted; series mostly up to 57.7 µM; further: nearly all actives have a fitted effect of over 60% in size
In short: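 Recombinant GPT2 (10ng/uL) with 250uM a-KG and 2mM L-alanine, 30 min at room temperature, in HEPES pH 7.5 buffer. Pyruvate detected by pyruvate oxidase/HRP/Amplex Red fluorescence after 30 min in the dark; AOA (50uM) as positive control.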
On the % scale 0 is the no-effect control and ±100 the full control effect; potency means the concentration at half of the fitted maximal effect; tags describe the fitted curve by direction and shape.

SMILES | Potency | outcome | activity change, negative = inhibition
O=C(NC1CCN(c2cc(-c3ccc(F)cc3)[nH]n2)C1)c1ccc(Br)o1 (configuration not stated) | inconclusive: 22.4 µM [inhibitor, partial curve] |  | 
COc1ccc(NC(=O)c2nc3sccn3c2-c2ccc(F)cc2)cc1 | inconclusive: 31.6 µM [inhibitor, single point] |  | 
CC(C)NC[C@H](O)c1ccc(O)c(O)c1 | active: 3.55 µM and inconclusive: 3.16 µM [inhibitor, partial curve, poor fit] |  | 
Cc1ccc2c(C(=O)NCc3ccccc3C(F)(F)F)cc(NC(=O)C(C)C)cc2n1 | inconclusive: 39.8 µM [inhibitor, single point] |  | 
CC(=O)Nc1ccccc1-c1c(C)nn2c1N(C(=O)c1ccc(Oc3ccccc3)cc1)CCC2 | inconclusive: 39.8 µM [inhibitor, single point] |  | 
CC1(C)CCC(C)(C)c2cc3c(cc21)Sc1ccccc1N=C3c1ccc(C(=O)O)cc1 | inconclusive: 39.8 µM [inhibitor, single point] |  | 
COc1ccccc1OCC(=O)c1ccc2c(c1)N(CC(=O)N(C)Cc1ccccc1)C(=O)CO2 | inconclusive: 3.98 µM [inhibitor, single point] |  | 
CC(C)c1nc2c(c(-c3ccc(O)cc3)n1)CN([S+](=O)([O-])c1cccc(C(F)(F)F)c1)CC2 |  | inactive | 
Cc1ccc([C@H]2C[C@@H](O)[C@@H](O)[C@@H]2NC(=O)C2CCOCC2)cc1 |  | inactive [at 88.5 µM] | 
Cc1nnc(NC(=O)C[C@H]2NC(=O)c3ccccc3NC2=O)s1 | inconclusive: 7.08 µM [inhibitor, single point] |  | 
O=C1CCN(S(=O)(=O)c2ccccc2)CCCC(C(=O)NCc2ccc(F)cc2)CCN1 (configuration not stated) |  |  | inactive: 2.51%
Cc1nn(-c2ccccc2Cl)c(=O)n1CC(=O)N(C)C(C)c1ccon1 (configuration not stated) |  | inactive [at 11.5 µM] | 
COCCNC(=O)c1cn2cc(-c3cccc(Cl)c3)n(CC=C(C)C)c(=O)c2n1 | inconclusive: 31.6 µM [inhibitor, single point] |  | 
Cc1ccc(NC(=O)c2ccc3c(c2)N(C)C2CCCCCN2C3=O)cc1C (configuration not stated) |  |  | inactive: 2.32%
CC(C)n1c(CNC(=O)C2CC(=O)N(C3CCCC3)C2)nc2ccccc21 (configuration not stated) |  |  | inactive: 3.22% [at 11.5 µM]
FC(F)(F)c1cccc(C2=NOC3(CCN(Cc4ccccc4)C3)C2)c1 (configuration not stated) | inconclusive: 39.8 µM [inhibitor, partial curve, poor fit] |  | 
CCCN(CC1CCOC1)S(=O)(=O)c1cccc(Br)c1 (configuration not stated) |  |  | inactive: -6.16%
COc1cc(N2CCN(C(C)=O)CC2)ccc1Nc1ncc(Cl)c(Nc2ccc(N3CCN(C(C)=O)CC3)cc2OC)n1 | inconclusive: 2.82 µM [inhibitor, partial curve, poor fit] |  | 
O=C(O)c1coc(CN2C[C@@H](C(=O)O)[C@H](C3CC3)C2)n1 | inconclusive: 39.8 µM [inhibitor, single point] |  | 
Cc1ccc2c(CC(=O)N3CCOc4ccc(CN5CCOCC5)cc4C3)cc(=O)oc2c1 | inconclusive: 4.47 µM [inhibitor, single point] |  | 
COCCOC1CCOC2(CCN(S(=O)(=O)c3ccc(F)cc3)CC2)C1 (configuration not stated) |  |  | inactive: -9.14%

SMILES | Potency | outcome | activity change, negative = inhibition
CCc1nc2c(=O)n(CC(=O)NCc3cccnc3)nc(C)c2s1 | inconclusive: 1 µM [inhibitor, full curve, poor fit] |  | 
Cc1ccc(-c2cc3c(=O)n(CCNC(=O)C4CCCCC4)ccn3n2)cc1C |  | inactive | 
CC[C@@H](Nc1c(Nc2cccc(C(=O)N(C)C)c2O)c(=O)c1=O)c1ccc(C)o1 | inconclusive: 39.8 µM [inhibitor, single point] |  | 
O=C(Cc1ccc(F)cc1)N1CCC2(CC1)CN(Cc1ccccc1)CC2CO (configuration not stated) | inconclusive: 39.8 µM [inhibitor, single point] |  | 
Cc1cccc(NC(=O)c2ccc3c(c2)N(C)C2CCCCCN2C3=O)c1 (configuration not stated) |  | inactive | 
Cc1noc(C)c1C(=O)N1Cc2ccccc2CC2(CCCCN2C)C1 (configuration not stated) | inconclusive: 39.8 µM [inhibitor, single point] |  | 
CC(=O)Oc1c(-c2ccc(NC(=O)c3ccco3)cc2)c(-c2cccc(C)c2)nn1-c1ccc(F)cc1 | active: 25.1 µM |  | 
CCOC(=O)Cn1nc2n(c1=O)CCN(Cc1cccc(Cl)c1)C2=O |  | inactive | 
O=C(Nc1ncc([N+](=O)[O-])s1)c1cccs1 | inconclusive: 5.01 µM [inhibitor, single point] |  | 
N[C@@H](C(=O)N[C@@H]1C(=O)N2C(C(=O)O)=C(Cl)CS[C@H]12)c1ccccc1 | inconclusive: 1.41 µM [inhibitor, single point] |  | 
COCCOC1CCN(C(=O)Nc2ccc(C(=O)OC)cc2)CC1 | inconclusive: 7.08 µM [inhibitor, single point] |  | 
CC(=O)c1ccc(NC(=O)Cn2c(-c3ccc(Cl)cc3)nc(C)cc2=O)cc1 |  | inactive | 
COC[C@H]1CCCN1[C@@H]1[C@H](O)[C@H](CO)O[C@@H]1CN(Cc1ccc(F)cc1)Cc1ccc(F)cc1 | inconclusive: 39.8 µM [inhibitor, single point] |  | 
COc1cc(C(N)=O)nc(-c2ccccn2)c1O | inconclusive: 5.01 µM [inhibitor, full curve, poor fit] |  | 
Cc1cccc2c1nc1n2[C@@H](CNCc2ccc(C#N)cc2)COC1 |  | inactive [at 88.5 µM] | 
COc1ccc(CCC(=O)N2CCOc3ccc(N4CCCC4)cc3C2)cc1 | active: 3.16 µM |  | 
Cc1noc(-c2ccc(OC3CN(C(=O)C(C)c4ccccc4)C3)cc2)n1 (configuration not stated) | inconclusive: 39.8 µM [inhibitor, single point] |  | 
CN(C)c1ccc(C(=O)N[C@H]2CO[C@H]3[C@@H]2OC[C@@H]3n2cc(COc3ccccc3)nn2)cc1 |  |  | inactive: -12.2%
Cc1cccc(-c2noc([C@@H]3Cc4nc[nH]c4CN3C(=O)Nc3cccc(C#N)c3)n2)c1 |  |  | inactive: -3.85% [at 88.5 µM]
COc1ccccc1-c1nc2nccc(-c3cc(OC)c(OC)c(OC)c3)n2n1 | inconclusive: 39.8 µM [inhibitor, single point] |  | 
O=C(NCC1CN(Cc2ccccn2)CC12CN(c1ccccc1)C2)c1ccccc1 (configuration not stated) | inconclusive: 1.12 µM [inhibitor, full curve, poor fit] |  | 
